# Test results published in the supplement of paper PMC11417369.
# The other results are listed elsewhere or left out.
# Test system: PfSIP2 AP2 domain 1 (GST-tagged)
# Assay: gcPBM binding intensity (ln(normalized median fluorescence intensity)); higher = stronger DNA binding
# In short: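 Plasmodium falciparum DNA-binding domains carrying a GST tag were expressed in E. coli and applied for 1 h, at about 25 μg on average, to an Agilent 4 × 180k array. The array held primer-extended double-stranded 36-bp intergenic genomic probes together with negative controls, and binding took place in 1× PBS with 1% milk, 0.2 mg/ml BSA, 0.5% salmon testes DNA and 0.03% Triton X-100. An Alexa488 anti-GST antibody detected bound protein, and the array was scanned at 488 nm. Binding intensity is taken as the highest Masliner-normalised natural-log median intensity across replicate spots of either probe orientation.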
row,Sequence,gcPBM binding intensity (ln)
1,CATATACACGAACACACACACATATAAATAAATATA [CACACA_site6379],7.32
2,GGAATATTAAAAAAATGTACAAAAAATAATATCCAT [XGTACX_site2596],6.99
3,TATAATGTTAAATAATGTACATATATTTTTTTTTTT [XGTACX_site4722],6.98
4,TATATATATTAAAAAGTGCATTATTCATATTATATA [GTGCAC_site9400],9.15
5,TTACAATTTAATATATGTACATATTTGTGATTTATC [XGTACX_site2911],6.93
6,TTTATTAATAATTATACACACATATAAAATGAATAA [CACACA_site1359],7.01
7,AAAATATCTTGTTACTGTACAAATATAAATAAATAC [XGTACX_site3684],7.11
8,ATATATACGTATGAATGTATATTTGTTTGAATTTTT [CACACA_negctrl_site524],6.83
9,TTTATATATTAATATGCACACACAAGAAGTAATTAT [CACACA_site9045],8.15
10,AATAATAACATACAGACACACACGTAAAAGCACGTG [CACACA_site253],6.86
11,AATGGGTAAACATACACACACACATATATATATATA [CACACA_site1991],9.49
12,TTTTTTTTTGAAAAAAGTACTTAATTTTTAAGAAGA [XGTACX_site3591],6.97
13,TCTAATAATAAATACACACACATATATATTTATATA [CACACA_site5169],6.93
14,GTCAACAAGAATTAAGTGCATAATTTTTTATTAAAT [GTGCAC_site9492],8.61
15,AGTAATAATCGGCATGCATGTCAGTGGTAGTATATA [TGCATGCA_site312],7.08
16,ATGTCAAGAACTGAACGTACAAACTTTGTAATATTG [XGTACX_site8754],7.16
17,ATACAGATAGGATGCACACATAATTCAAATACAATA [CACACA_site4531],7.62
18,ATATAATAATAATATTGTACAATAAAAAATATATAT [XGTACX_site7350],7.21
19,AAATTTTATGTATAATGTACACATAAATTTTTCTTT [XGTACX_site7266],7.06
20,TTAAGTAGTACATACACACACATATACAAAAAGAAA [CACACA_site3972],7.3
21,TACTTTTTTCCTATTATGTTTCTTATTTTTATAAAT [XGTACX_negctrl_site561],7.47
22,TATTATTTTTCATATGCATGCAAAAATAAAAAAATA [TGCATGCA_site350],7.05

row,Sequence,gcPBM binding intensity (ln)
1,TATAAAAAAAAAAAAAAAAAAAAAAATATATATATA [CACACA_negctrl_site817],8.89
2,ATGAAAAAAAAAAAAAAAAAAAAAAAAAAAAAAATA [CACACA_negctrl_site1083],6.83
3,ATTTTTTTGTATATATATGACTGGGGATATAATCAA [GTGCAC_negctrl_site274],7.04
4,AAAAAAAAAAAAAATTGTACTTAAATATATATATAT [XGTACX_site7604],9.07
5,AAATTAAAATAAAATAGTACATATATTTATATTTTT [XGTACX_site1687],6.79
6,ACATACATATATTTATGTACATATATATTTATGATT [XGTACX_site6485],7.11
7,TTTTGGTGTATAGTATTAATATAAAATAATTATATT [CACACA_negctrl_site47],7.15
8,AAAAAAAGATTATACACACACATATATAAACATACA [CACACA_site4553],7.1
9,AATTTATATTTATGTGCATGTAATAACTGTATATAA [TGCATGCA_site349],7.55
10,TTAGCTTATCATTACTGTACTTTATTCATATATATG [XGTACX_site8008],7.02
11,TAAACATTCTTATATAGTACCCATATTAAAATATAC [XGTACX_site8014],6.93
12,ATTTTTTTTTCTTGTACACACTATTTTATAATTTTA [CACACA_site6102],7.38
13,TACATATATATATATGAACACACAAAAAGAATATTT [CACACA_site8421],7.21
14,ATAAGCATACATATTACACACATATAATATATATAT [CACACA_site2487],8.7
15,TCTTACTAATTTATGGGGACTTATCACCTATTCAGT [CACACA_negctrl_site652],6.81
16,AGTGGATAAATTTATTCACACATTTTTTTTTTTTTT [CACACA_site5914],6.97
17,TTTTATGAGAAACACACACACAAAAAAAAAAAAAAA [CACACA_site4129],7.12
18,CATGAATCCTAATAATGTACATAAGAATTCATAATG [XGTACX_site1607],6.84
19,TCAATAATAAAAAACACACACAAAAAAAAATAATTA [CACACA_site2798],6.8
20,AACAAAGTCATACATACATACATATATATATATATA [GTGCAC_negctrl_site632],9.34
21,TATATTATTTATAGTAGTACATAAAATATAAATATT [XGTACX_site4417],6.98
22,AAAAAAAAAAAAAAAACACACATACACATATATTTT [CACACA_site7768],7.83

row,Sequence,gcPBM binding intensity (ln)
1,TATTGTATTTCATATTGTACTAAAAAAAAAAAAAAG [XGTACX_site6694],7.09
2,ATAATACATACATACATACACACATATATATATATT [CACACA_site3576],7.46
3,TAAAAAAAAAAAAAAACACACATATAAATATTTATA [CACACA_site6702],6.86
4,TGAATAAAGAAACACACACACATATATATATATGTA [CACACA_site17],7.01
5,TATTAATAATTTTCATGTACATATGTATTTGTAATA [XGTACX_site858],6.97
6,ATATAATAAATGTCATGTACATACAACATTTTAACT [XGTACX_site7517],7.08
7,TTTTTAATTTACTGTCATAGGTACCTTAACTTATCA [CACACA_negctrl_site1664],6.85
8,TACTTATGTTCGCACACATGCAAATTAAAAAAAAAA [TGCATGCA_site1023],7.71
9,TACATATACATATTGTGTACATAATAATTATTTATA [XGTACX_site7884],7.58
10,TTAATTAAGAAACACACACACATATATATATATATT [CACACA_site2290],7.18
11,TCTCTTTTTCGTTCATGTACAAATAAATAAAAATAT [XGTACX_site6558],7.35
12,GTATATTTTATTTTATGTACATATTCATTTTTTATT [XGTACX_site561],7.68
13,TTATATATATGACTTTGTACATATACATATTTTTTA [XGTACX_site4669],6.7
14,TATTATATATATGCACGTACAAAAATAATAAAGGTA [XGTACX_site3506],7.71
15,ATTTTTTTACTGGATCCATATTTGCTTTTTTATTTA [CACACA_negctrl_site1108],6.83
16,GTGGATATATGTATATGTACATATGTATGTATATAT [XGTACX_site2412],7.44
17,TTTAAAATTTAATTTTGTACATATACCAATTTTATT [XGTACX_site448],6.85
18,AATTAGCATAAATGGGTGCTACACAAAAATGCATGT [GTGCAC_site9640],9.7
19,ATATAAATATGAAAAAGTACAAGCCATCAAGAAATC [XGTACX_site8140],7.19
20,AATTTTTTATTCTTTGCATGTCATCATATATAATAT [TGCATGCA_site549],7.31
21,ATATAATGTTAGGGTAGAGGAAGTAACTAATATAAA [CACACA_negctrl_site1153],6.99
22,ATATAATATATGTTATGTACATAGTTTTTATTGTTC [XGTACX_site7438],7.02

row,Sequence,gcPBM binding intensity (ln)
1,AATATATAATCAGATGAATTTTTTTTTTTTTTTTCA [CACACA_negctrl_site534],6.53
2,TATAAATATTATAATTGTACATATTATAAAAATTTT [XGTACX_site2719],6.98
3,AGCAACTAAAAAGGATACCCCATTAAAAAAAAATTA [XGTACX_negctrl_site489],6.62
4,TGTGTATAAAAAAAGTGTACACAAAGTAAGACTTTA [XGTACX_site3759],7.57
5,TACCAAAAAACGGCACGCATATGTATAAGAATATGT [XGTACX_negctrl_site470],7.07
6,AAATATATAAAAGTATGTACATATGAAAAATATATA [XGTACX_site6165],7.22
7,TTATATAACATAACGATGTTTCAAAACATATTGTAT [CACACA_negctrl_site997],6.94
8,TTATAAAGAATTAGGAGTACAAATGCATATATAATA [XGTACX_site6580],7.3
9,TCTTACACTAATAAATGTACATACAAAAAATCTATT [XGTACX_site1379],7.21
10,TACCCACTAAAATACACACACACACCCACATATATA [CACACA_site6141],7.17
11,AATTTGAATATTTGATGTACAAAGTTTTTTAATGTT [XGTACX_site3249],6.94
12,GAGAGGATAGTTCACAGTACCCAGTAACTCTACGGA [XGTACX_site4876],6.61
13,GTACCAACAGCACTACTTCTCGCCATTTTCTTGTAG [XGTACX_negctrl_site97],7.28
14,AAATGTATAATTTTTTAATACACTTATTTAAAATAA [CACACA_negctrl_site797],6.86
15,ATAAATATAACATATTGTACCCTTAAAAAGGAACAA [XGTACX_site352],6.86
16,CTCAAATAACTTTTTACACACATTATTTGAAATAAG [CACACA_site6722],7.19
17,ATATGAATGATCGTACGTACTTACATATTTATAAAG [XGTACX_site8041],7
18,CAGAATACATACATTACACACAAATTTAAGTATATA [CACACA_site1781],6.95
19,TATGAGAACAAACATTGTACAATAAAAAGTAGATAT [XGTACX_site920],7.28
20,ACAAATAAAAAAATTACACACATATAAAATATAGAT [CACACA_site6756],6.78
21,AGGAAAATAATTAAAGCATGCTCATTATGAAATATA [TGCATGCA_site855],6.79
